The list shows a part of the results. Bounds are passed on as bounds.

Among the data in a collection of fitness landscapes (doi:10.1126/science.1257360) are enrichment ratio values, retold here.

B1: PhoQ; a variant is named by its letters at X, in order, P23837 (parent)
chain: MKKLLRLFFPLSLRVRFLLATAAVVLVLSLAYGMVALIGYSVSFDKTTFRLLRGESNLFYTLAKWENNKLHVELPENIDKQSPTMTLIYDENGQLLWAQRDVPWLMKMIQPDWLKSNGFHEIEADVNDTSLLLSGDHSIQQQLQEVREDDDDAEMTHSVAVNVYPATSRMPKLTIVVVDTIPVELKSSYMVWSWFIYVLSANLLLVIPLLWVAAWWSLRPIEALAKEVRELEEHNRELLNPATTRELTSLVRNLNRLLKSERERYDKYRTTLTDLTHSLKTPLXXLQXXLRSLRSEKMSVSDAEPVMLEQISRISQQIGYYLHRASMRGGTLLSRELHPVAPLLDNLTSALNKVYQRKGVNISLDISPEISFVGEQNDFVEVMGNVLDNACKYCLEFVEISARQTDEHLYIVVEDDGPGIPLSKREVIFDRGQRVDTLRPGQGVGLAVAREITEQYEGKIVAGESMLGGARMEVIFGRQHSAPKDE

The variants in the assay derive from B1. As to the kind of experiment: enrichment ratio after two sorts for PhoP signalling (ratio (wild type AVST 3.29)); higher = more functional. The conditions noted are these: with PhoP (E. coli).
In the case of IHSE, the enrichment ratio was not above 0.25.

As to PYHI, the enrichment ratio was not above 0.25.

As to MQGQ, the enrichment ratio was not above 0.25.

With VAFC, the enrichment ratio is not above 0.25.

With KAYS, the enrichment ratio was not above 0.25.

As to WPIQ, the enrichment ratio was not above 0.25.

As for ICCY, the enrichment ratio was not above 0.25.

For NDKD, the enrichment ratio is not above 0.25.

As to WLGP, the enrichment ratio is not above 0.25.

Regarding WSDN, the enrichment ratio was not above 0.25.

For LNSY, the enrichment ratio is not above 0.25.

On to NERT, for which the enrichment ratio was not above 0.25.

As for AYRY, the enrichment ratio was not above 0.25.

Consider AHMA, for which the enrichment ratio was not above 0.25.

Regarding WPTY, the enrichment ratio was not above 0.25.

RRYM: the enrichment ratio was not above 0.25.

On to NFPR, for which the enrichment ratio was not above 0.25.

For the variant KEYP, the enrichment ratio was not above 0.25.

In the case of STKP, the enrichment ratio is not above 0.25.

With MSAD, the enrichment ratio is not above 0.25.

With VRGW, the enrichment ratio is not above 0.25.

With AHPP, the enrichment ratio was not above 0.25.

Take FPYT: the enrichment ratio was not above 0.25.

On to AQDS, for which the enrichment ratio was not above 0.25.

Regarding IQMQ, the enrichment ratio is not above 0.25.

Turning to AFSM, the enrichment ratio was 0.932.

With YQEA, the enrichment ratio was not above 0.25.

In the case of GHSK, the enrichment ratio was not above 0.25.

With IYIM, the enrichment ratio was not above 0.25.

With DPHG, the enrichment ratio is not above 0.25.

Consider MCHM, for which the enrichment ratio worked out at 16.7.

With KNYG, the enrichment ratio is not above 0.25.

As to IMWR, the enrichment ratio is not above 0.25.

In the case of KQFH, the enrichment ratio was not above 0.25.

As for AWYQ, the enrichment ratio is not above 0.25.

As for FLKI, the enrichment ratio is not above 0.25.

Consider PRTV, for which the enrichment ratio is not above 0.25.

For DLVW, the enrichment ratio is not above 0.25.

For the variant LGFM, the enrichment ratio was found to be 10.3.

PYRS: the enrichment ratio was not above 0.25.

Take AYFY: the enrichment ratio is not above 0.25.

As for ADPD, the enrichment ratio is not above 0.25.

Regarding EMII, the enrichment ratio was not above 0.25.

On to IKHQ, for which the enrichment ratio is not above 0.25.

For the variant FIIK, the enrichment ratio was not above 0.25.

In the case of MSSL, the enrichment ratio is 9.59.

With SAHT, the enrichment ratio is not above 0.25.

Turning to VVVF, the enrichment ratio is not above 0.25.

With NLMF, the enrichment ratio is not above 0.25.

As for VVCQ, the enrichment ratio was not above 0.25.

For the variant DLRD, the enrichment ratio was not above 0.25.

KRTF: the enrichment ratio is not above 0.25.

In the case of WIPR, the enrichment ratio was not above 0.25.

For the variant RVIN, the enrichment ratio was not above 0.25.

As for EFPM, the enrichment ratio was not above 0.25.

Take WKYY: the enrichment ratio is not above 0.25.

On to TICC, for which the enrichment ratio was determined as 2.66.

For HGYK, the enrichment ratio is not above 0.25.

As for LGMY, the enrichment ratio was not above 0.25.

As to NPHC, the enrichment ratio is not above 0.25.

Turning to VTCQ, the enrichment ratio is 6.57.

Regarding AIMP, the enrichment ratio was not above 0.25.

On to IQNV, for which the enrichment ratio was not above 0.25.

As to DCQW, the enrichment ratio was not above 0.25.

TGMY: the enrichment ratio came to 12.7.

For the variant KQVI, the enrichment ratio is not above 0.25.

With EVRL, the enrichment ratio is not above 0.25.

In the case of QRWF, the enrichment ratio was not above 0.25.

SRTF: the enrichment ratio was not above 0.25.

Consider PSGR, for which the enrichment ratio is not above 0.25.

Take HDIV: the enrichment ratio was not above 0.25.

VDPE: the enrichment ratio was not above 0.25.

In the case of WEWC, the enrichment ratio is not above 0.25.

For the variant RDHI, the enrichment ratio is not above 0.25.

Regarding RCAA, the enrichment ratio is not above 0.25.

In the case of FWAI, the enrichment ratio is not above 0.25.

For the variant IYWS, the enrichment ratio is not above 0.25.

Take WPTD: the enrichment ratio was not above 0.25.

Consider VLDW, for which the enrichment ratio is not above 0.25.

Consider IKYE, for which the enrichment ratio was not above 0.25.

As for TRNA, the enrichment ratio worked out at 0.827.

Regarding DTHL, the enrichment ratio is not above 0.25.

Consider IYVP, for which the enrichment ratio is not above 0.25.

Turning to GHLA, the enrichment ratio was not above 0.25.

As to SCFY, the enrichment ratio is not above 0.25.

As to NSGW, the enrichment ratio was not above 0.25.

Turning to TNVK, the enrichment ratio is not above 0.25.

Consider QHLM, for which the enrichment ratio was not above 0.25.

As for QSKT, the enrichment ratio was not above 0.25.

For the variant AKPV, the enrichment ratio is not above 0.25.

In the case of RDMV, the enrichment ratio was not above 0.25.

For WYED, the enrichment ratio was not above 0.25.

On to NMVA, for which the enrichment ratio was not above 0.25.

In the case of RGAE, the enrichment ratio is not above 0.25.

In the case of HTTS, the enrichment ratio was not above 0.25.

As for QNPY, the enrichment ratio is not above 0.25.

Take YSGR: the enrichment ratio is not above 0.25.

Take VYKY: the enrichment ratio is not above 0.25.

For the variant RFCA, the enrichment ratio was not above 0.25.

As for IIHN, the enrichment ratio was not above 0.25.

Turning to NASE, the enrichment ratio was not above 0.25.

In the case of HTDQ, the enrichment ratio is not above 0.25.

As to LHIQ, the enrichment ratio is not above 0.25.

On to GQIT, for which the enrichment ratio is not above 0.25.

On to LEDV, for which the enrichment ratio is not above 0.25.

Regarding PWTW, the enrichment ratio was not above 0.25.

For the variant NWMA, the enrichment ratio was not above 0.25.

With NNAM, the enrichment ratio was not above 0.25.

VTCD: the enrichment ratio was not above 0.25.

As for QMNT, the enrichment ratio was not above 0.25.

Regarding IPKD, the enrichment ratio was not above 0.25.

Consider SRDE, for which the enrichment ratio was not above 0.25.

FWFP: the enrichment ratio is not above 0.25.

For RFLV, the enrichment ratio is not above 0.25.

Take GVAI: the enrichment ratio was not above 0.25.

SGYC: the enrichment ratio worked out at 0.294.

SAES: the enrichment ratio was not above 0.25.

GMGQ: the enrichment ratio is not above 0.25.

In the case of CQMP, the enrichment ratio was not above 0.25.

For INRA, the enrichment ratio is not above 0.25.

Regarding KSDS, the enrichment ratio is not above 0.25.

With HTDE, the enrichment ratio was not above 0.25.

For MDRH, the enrichment ratio was not above 0.25.

In the case of HSGA, the enrichment ratio is not above 0.25.

Take GSNN: the enrichment ratio is not above 0.25.

For QPGH, the enrichment ratio is not above 0.25.

With PYVY, the enrichment ratio was not above 0.25.

Regarding LDWH, the enrichment ratio is not above 0.25.

In the case of NRAE, the enrichment ratio is not above 0.25.

On to TSAS, for which the enrichment ratio was 10.2.

On to PGDD, for which the enrichment ratio was not above 0.25.

As to CQHS, the enrichment ratio was not above 0.25.

As to PYMS, the enrichment ratio is not above 0.25.

On to RKCD, for which the enrichment ratio was not above 0.25.

For the variant SPQA, the enrichment ratio is not above 0.25.

As for RYMM, the enrichment ratio is not above 0.25.

For DGRH, the enrichment ratio is not above 0.25.

In the case of PDPP, the enrichment ratio is not above 0.25.

With MMDI, the enrichment ratio was not above 0.25.

For the variant VPFW, the enrichment ratio is not above 0.25.

With VEAN, the enrichment ratio is not above 0.25.

ITDG: the enrichment ratio is not above 0.25.

For MNAV, the enrichment ratio is 2.67.

With MTGG, the enrichment ratio is 0.473.

Consider PPQP, for which the enrichment ratio is not above 0.25.

For the variant MIIK, the enrichment ratio was not above 0.25.

Consider DFEF, for which the enrichment ratio is not above 0.25.

In the case of RKIY, the enrichment ratio is not above 0.25.

Turning to RSDC, the enrichment ratio was not above 0.25.

Consider YHNA, for which the enrichment ratio was not above 0.25.

For RVIT, the enrichment ratio was not above 0.25.

With ALFL, the enrichment ratio was not above 0.25.

For HSDI, the enrichment ratio was not above 0.25.
